According to PubChem BioAssay AID504332 (National Center for Advancing Translational Sciences (NCATS), 2011):
In all, about 350,000 compounds went through this assay and about 31,000 (8.9%) were called active. Inconclusive means that the source gave no clear call. Such entries were picked first, then a sample of the others. The call rests on the fitted dose curve; in most records, active means well fitted inhibition curve with a large enough effect; inconclusive means small, poorly fitted or top-dose-only effect; inactive means no such curve, though single readings can be large or run the other way. Potencies of inconclusive entries are doubtful fits and often do not repeat.

Target: Histone-lysine N-methyltransferase EHMT2 (Homo sapiens) (UniProt Q96KQ7)
Chain of UniProt Q96KQ7 (Q96KQ7 whole entry, looked up): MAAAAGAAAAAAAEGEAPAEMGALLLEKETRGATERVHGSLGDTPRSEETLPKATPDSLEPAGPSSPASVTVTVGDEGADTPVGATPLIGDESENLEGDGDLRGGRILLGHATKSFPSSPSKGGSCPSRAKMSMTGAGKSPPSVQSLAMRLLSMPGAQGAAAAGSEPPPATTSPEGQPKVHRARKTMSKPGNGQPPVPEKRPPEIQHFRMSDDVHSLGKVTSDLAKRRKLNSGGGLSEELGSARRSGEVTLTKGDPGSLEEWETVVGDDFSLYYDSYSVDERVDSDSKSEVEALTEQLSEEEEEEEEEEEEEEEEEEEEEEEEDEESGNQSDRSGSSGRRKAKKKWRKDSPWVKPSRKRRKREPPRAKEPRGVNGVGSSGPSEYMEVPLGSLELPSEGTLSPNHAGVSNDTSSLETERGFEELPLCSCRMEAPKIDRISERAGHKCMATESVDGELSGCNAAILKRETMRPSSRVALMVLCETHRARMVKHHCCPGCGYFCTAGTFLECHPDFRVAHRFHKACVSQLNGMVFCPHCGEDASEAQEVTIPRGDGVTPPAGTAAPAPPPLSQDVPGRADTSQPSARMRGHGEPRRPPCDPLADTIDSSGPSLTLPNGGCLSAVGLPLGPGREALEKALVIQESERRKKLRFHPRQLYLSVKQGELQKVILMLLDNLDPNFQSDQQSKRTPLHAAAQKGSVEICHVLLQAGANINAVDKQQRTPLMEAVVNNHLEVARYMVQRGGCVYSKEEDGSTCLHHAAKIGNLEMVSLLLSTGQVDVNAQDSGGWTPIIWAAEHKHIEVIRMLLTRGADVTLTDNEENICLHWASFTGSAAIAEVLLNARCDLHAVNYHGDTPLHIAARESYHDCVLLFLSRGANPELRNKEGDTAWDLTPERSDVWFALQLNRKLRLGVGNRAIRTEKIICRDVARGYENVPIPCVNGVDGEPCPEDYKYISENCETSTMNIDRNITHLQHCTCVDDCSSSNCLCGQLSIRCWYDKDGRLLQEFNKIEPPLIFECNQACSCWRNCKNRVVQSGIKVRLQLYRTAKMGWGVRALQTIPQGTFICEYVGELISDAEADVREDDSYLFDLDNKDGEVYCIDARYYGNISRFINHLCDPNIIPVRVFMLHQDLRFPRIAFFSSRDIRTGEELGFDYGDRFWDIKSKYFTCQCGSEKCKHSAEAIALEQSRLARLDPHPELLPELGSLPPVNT
Test: qHTS Assay for Inhibitors of Histone Lysine Methyltransferase G9a; further: nearly all actives have a fitted effect of over 75% in size
Conditions: G9a H3K9 monomethylation, AlphaScreen, 2 h; activity, negative = inhibition: at 59 µM (top of the series) unless noted
How it was run: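 Using a bead-based AlphaScreen, monomethylated H3K9 product from 2 h room-temperature reactions (G9a 20 nM, peptide 500 nM, SAM 20 uM) was detected with 0.5 ug/mL rabbit anti-H3K9me1 antibody.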
On the % scale 0 is the no-effect control and ±100 the full control effect; potency means the concentration at half of the fitted maximal effect; tags describe the fitted curve by direction and shape.

SMILES | Potency | activity, negative = inhibition
COc1ccc(Nc2nc(C)c(-c3ccccc3)s2)cc1 | inconclusive: 31.6 µM [inhibitor, single point] | 
CCOC(=O)N1CCN(c2ccc(O)cc2)CC1 | active: 2.82 µM | 
COc1ccc(C(=O)C[n+]2ccc3c(c2)nc(-c2cc(OC)c(OC)cc2OC)n3C)cc1 | inconclusive: 44.7 µM [inhibitor, partial curve] | 
COC(=O)c1c(NS(=O)(=O)Cc2ccccc2)sc2c1CCCC2 | inconclusive: 79.4 µM [inhibitor, single point] | 
Cc1ccc(N=CC=C2OC(C)(C)C(C)(C)O2)c(C)c1 | inconclusive: 39.8 µM [inhibitor, single point] | 
CCOc1ccccc1Nc1nc(N)nc(CN(C)C2CCCCC2)n1 |  | inactive: -9.7%
Cc1ccccc1N=Nc1ccc(O)c2ncccc12 | inconclusive: 8.91 µM [inhibitor, partial curve, poor fit] | 
Cc1cccc(C(=O)NC(NC(=S)Nc2ccc(S(N)(=O)=O)cc2)C(Cl)(Cl)Cl)c1 (centres undefined) | inconclusive: 44.7 µM [inhibitor, partial curve, poor fit] | 
CCCCn1c(N)c(N(CC(C)C)C(=O)CN(C)S(=O)(=O)c2ccc(F)cc2)c(=O)[nH]c1=O | inconclusive: 89.1 µM [inhibitor, partial curve, poor fit] | 
CS(=O)(=O)N1CC(C(=O)NN)Oc2ccc(Cl)cc21 (centres undefined) |  | inactive: 24.4%
CC(OC(=O)c1ccc(Br)c(S(=O)(=O)N2CCOCC2)c1)C(=O)NC1CCCCC1C (centres undefined) | inconclusive: 50.1 µM [inhibitor, partial curve, poor fit] | 
O=C(Nc1ccccc1N1CCCCC1)c1ccc([N+](=O)[O-])o1 | active: 11.2 µM | 
CC(=O)Nc1ccc(S(=O)(=O)N2CCC(c3nc4ccc(C)cc4[nH]3)CC2)cc1 | inconclusive: 89.1 µM [inhibitor, single point] | 
Cc1cc(C)nc(NC(=O)CSc2nn(C)c(=S)s2)n1 | inconclusive: 70.8 µM [inhibitor, partial curve, poor fit] | 
CN(C)c1ccc(NC(=O)C2(c3cccs3)CCOCC2)cc1 | active: 2.82 µM | 
O=C(Nc1ccccc1)C1CCN(c2nccs2)CC1 | active: 50.1 µM | 
OCC1(Cc2ccccc2)CCN(Cc2cnc(-c3cccc4ccccc34)nc2)CC1 | inconclusive: 56.2 µM [inhibitor, single point] | 
C=CCn1c(-c2cccnc2)n[nH]c1=S | active: 44.7 µM | 
COc1cc2c(cc1OC)C(c1ccc(-c3ccccc3Cl)o1)=NCC2 | active: 7.08 µM | 
